PubChem BioAssay AID1030 (National Center for Advancing Translational Sciences (NCATS), 2008)
About 16,000 (7.3%) of roughly 220,000 compounds were called active. Inconclusive results, whose numbers are uncertain, are shown with a selection of clear calls. Calls follow the shape of the dose curve; as a rule, active = well fitted inhibition curve with a large enough effect (not every such curve was filed as active); inconclusive = small, poorly fitted or top-dose-only effect, or another doubt; inactive = no such curve, though single readings can be large or run the other way. No potency is given beside an inconclusive call; the fits are too rough.

Target: Aldehyde dehydrogenase 1A1 (Homo sapiens) (UniProt P00352)
Assay: qHTS Assay for Inhibitors of Aldehyde Dehydrogenase 1 (ALDH1A1);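 as to activity, negative = inhibition: plate controls were no enzyme wells and a reference inhibitor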
Settings: Purified ALDH1A1, NADH fluorescence, propionaldehyde substrate; series mostly up to 75.3 µM; activity, negative = inhibition: at the top concentration
Potency is read from the fitted curve at half-maximal effect; tags tell the direction and shape of the fitted curve.

Sequence of UniProt P00352 (P00352 whole entry, looked up): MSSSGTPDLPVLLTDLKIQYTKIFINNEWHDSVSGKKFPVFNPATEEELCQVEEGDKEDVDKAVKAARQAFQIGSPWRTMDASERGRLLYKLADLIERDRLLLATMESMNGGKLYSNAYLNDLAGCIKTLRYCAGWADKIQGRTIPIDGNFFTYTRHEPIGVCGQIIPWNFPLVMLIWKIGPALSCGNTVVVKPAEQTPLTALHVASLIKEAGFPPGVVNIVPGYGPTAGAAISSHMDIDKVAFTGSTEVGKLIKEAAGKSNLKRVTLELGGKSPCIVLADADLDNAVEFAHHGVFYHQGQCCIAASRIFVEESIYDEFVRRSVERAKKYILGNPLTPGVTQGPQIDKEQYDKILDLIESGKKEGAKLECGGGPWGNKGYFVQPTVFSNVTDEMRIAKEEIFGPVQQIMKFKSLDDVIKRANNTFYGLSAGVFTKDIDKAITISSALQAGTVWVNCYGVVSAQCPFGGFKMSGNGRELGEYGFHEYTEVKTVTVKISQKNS

Row | SMILES | Potency | activity, negative = inhibition
1 | CC1CCc2cc(F)ccc2N1S(=O)(=O)c1ccc(Cl)nc1 (stereo not drawn) | inconclusive [inhibitor, single point] | 
2 | C/C(CC(=O)Nc1ccc(Cl)c(Cl)c1)=N\NC(=O)Cc1ccccc1 | inconclusive [inhibitor, single point] | 
3 | Cc1cc[n+](-c2[nH]c(=O)sc2/C=N/NC([S-])=Nc2ccccc2)cc1C | inconclusive [inhibitor, single point] | 
4 | O=[N+]([O-])c1ccc(NCCCO)c(S(=O)(=O)N2CCOCC2)c1 | inconclusive [inhibitor, single point] | 
5 | CC(C)(C)OC(=O)NCCc1nnc(S(=O)(=O)Cc2ccc(Cl)cc2Cl)o1 | active: 2.82 µM | 
6 | COc1ccc(C(=O)N2CCC3(CC2)CCN(c2cccc(-c4ccccc4)c2)CC3)cc1 | inconclusive [inhibitor, single point] | 
7 | CCCn1c(=O)c2ccccc2n2c(SCN3C(=O)c4ccccc4C3=O)nnc12 |  | inactive: -7.21%
8 | O=c1c2[nH]c3ccccc3c2ncn1Cc1ccccn1 | inconclusive [inhibitor, partial curve] | 
9 | Cc1cc(C)n2nc(SCC(=O)Nc3ccccc3)nc2n1 |  | inactive: 1.17%
10 | C=CCSc1nnnn1-c1ccc(OC)cc1 |  | inactive: 1.56%
11 | CCN(CC)CCCNC(=O)c1ccc2c(SCC(=O)O)c3c(nc2c1)CCC3 |  | inactive: -0.393%
12 | COc1ccc(CCNC(=O)CSc2nncs2)cc1 |  | inactive: 6.87%
13 | Cc1cc(C(=O)Nc2nnc(C3CCCCC3)s2)cs1 | inconclusive [inhibitor, partial curve, poor fit] | 
14 | CC(C)c1nc2sc3c(c2c(=O)o1)CCCC3 |  | inactive: -0.0347%
15 | O=C(/C=C(/c1ccc(Cl)cc1)n1cncn1)c1ccccc1 |  | inactive: 8.12%
16 | OCCCN=C1CCCCC1 |  | inactive: -7.55% [at 13.5 µM]
17 | CCn1c(-c2cc(OC)ccc2OC)csc1=Nc1c(C)n(C)n(-c2ccccc2)c1=O | active: 22.4 µM | 
18 | Cn1c(=O)c2c(SCC(=O)NCc3ccco3)nc(CC(C)(C)C)nc2n(C)c1=O | inconclusive [inhibitor, partial curve] | 
19 | COC(CNC(=O)c1ccc(N2CCc3ccccc32)c([N+](=O)[O-])c1)OC | inconclusive [inhibitor, partial curve] | 
20 | COc1cccc(/C=N/NC(=O)CSc2ccccc2C)c1OC | inconclusive [inhibitor, single point] | 
21 | COc1ccc(C(=O)NC(=S)NCCO)cc1Br | inconclusive [inhibitor, single point] | 
22 | COc1ccc(NS(=O)(=O)c2ccc(N3CCOCC3)c(NC(=O)c3ccccc3Cl)c2)cc1 |  | inactive: 7.25%
23 | c1ccc2oc(C3=NNC(=NC4CC4)SC3)cc2c1 | active: 28.2 µM | 
24 | Cc1ccc(O)c(C(=O)c2cnn(C(=O)Cc3csc(C)n3)c2)c1 | active: 1.12 µM | 

Row | SMILES | Potency | activity, negative = inhibition
25 | O=C(NCC1OCCc2ccccc21)c1ccc(NC(=O)c2cccc(Br)c2)cc1 (stereo not drawn) |  | inactive: 5.38%
26 | COc1ccc(Cn2c(C)ccc2C)cc1 | inconclusive [inhibitor, single point] | 
27 | O=C(CN1CCOCC1)Nc1c2c(nc3ccccc13)N(Cc1ccccc1)CC2 | inconclusive [inhibitor, partial curve] | 
28 | CC1CN(Cc2ccccc2)c2nc3c(c(=O)n(C)c(=O)n3C)n2C1 (stereo not drawn) |  | inactive: 1.21%
29 | Cc1ccc2[nH]c(=O)c(CN(CCCN3CCOCC3)C(=O)NC3CCCCC3)cc2c1 | inconclusive [inhibitor, partial curve] | 
30 | O=C(CSc1nnnn1-c1cccnc1)Nc1ccc(OCc2ccccc2)cc1 | active: 3.98 µM | 
31 | COC(=O)c1cccnc1NC(=S)NC1CCCCC1 | inconclusive [inhibitor, partial curve] | 
32 | O=C(/C=C/c1c(F)cccc1Cl)NCc1ccco1 | inconclusive [inhibitor, partial curve] | 
33 | COCCOC(=O)c1sc(=S)n(CCOC)c1N | active: 10 µM | 
34 | CC(C)(C)c1ccc(-c2nnc3sc(-c4ccccn4)nn23)cc1 | inconclusive [inhibitor, partial curve] | 
35 | COc1ccc(/C=C(/CC(=O)NCc2ccc(Cl)cc2)c2nc3ccccc3s2)cc1 | inconclusive [inhibitor, partial curve] | 
36 | COc1cc2[nH]c(=O)n(Cc3ccccc3Cl)c(=O)c2cc1OC | inconclusive [inhibitor, full curve] | 
37 | COc1cc2cc(Br)cc(Br)c2nc1C | inconclusive [inhibitor, single point] | 
38 | Cc1cc(Br)ccc1OCC(=O)NNC(=O)c1cnccn1 |  | inactive: -5.8%
39 | Cc1onc(-c2c(F)cccc2Cl)c1C(=O)NCc1ccco1 | inconclusive [inhibitor, single point] | 
40 | CCOC(=O)c1c(-c2ccc(-c3ccccc3)cc2)csc1NC(=O)c1cccc(N2C(=O)CCC2=O)c1 | inconclusive [inhibitor, partial curve] | 
41 | O=C(CSc1nnc(COc2ccccc2Cl)o1)NC(=O)NCc1ccco1 | inconclusive [inhibitor, single point] | 
42 | CCn1c(SCC(=O)Nc2cc(C)on2)nnc1-c1cccs1 | inconclusive [inhibitor, partial curve] | 
43 | O=C(CCC(=O)c1cccs1)Nc1ccc(F)c(F)c1F | inconclusive [inhibitor, partial curve] | 
44 | N#CC(C#N)=Cc1cc2ccccc2nc1N1CCOCC1 | active: 11.2 µM | 
45 | COc1cc2cnncc2cc1OC | inconclusive [inhibitor, single point] | 
46 | N=c1c(C(=O)NCc2ccc(F)cc2)cc2c(=O)n3ccccc3nc2n1Cc1ccco1 | inconclusive [inhibitor, partial curve] | 
47 | CCc1nc2ccccc2c(=O)n1NC(=O)c1c(O)c2ccccc2n(CC)c1=O |  | inactive: -2.97%
48 | Cc1[nH]n(C(N)=S)c(=O)c1N=Nc1ccc(S(=O)(=O)N2CCCCCC2)cc1 | active: 11.2 µM | 
